Hit rate of the full screen: of about 52,000 compounds, about 4,300 (8.3%) were called active. Cut-off read from the data, not from the text of the source: active = survival mostly below about 52% (no sharp cut-off); inactive = mostly above about 56%. This is one part of the list.

The subject of the assay is DeltatarO mutant. Put plainly: S. aureus survival, RN4220 and DeltatarO strains – OD600, teichoic acid synthesis inhibitors, primary screen (AID 463173). Conditions: S. aureus RN4220 wild type/DeltatarO growth, OD600, 18 h, active compounds read low, screened at 18.75 µg/mL (by protocol).
For the compound `CCS(=O)(=O)N1CC(=O)N(c2cc(Cl)ccc2C)C(C)(C(=O)NC2CCCCCC2)C1` (stereo not drawn), the survival was inactive: 99%. In the case of `C=CCn1c(Br)nc2c1c(=O)n(C)c(=O)n2C`, the survival was inactive: 73%.

On to `COc1ccc(-c2nc3scc(CCNS(=O)(=O)c4cccs4)n3n2)cc1`, for which the survival was active: 6%. Consider `COc1ccc(CNC(=O)CCc2c(C)nn(-c3ccc(N4CCCC4)nn3)c2C)cc1`, for which the survival was inactive: 80%.

With `Cc1ccc(-n2c(=O)c3c4c(sc3n(CC(=O)C(C)(C)C)c2=O)CCCCC4)cc1C`, the survival is inactive: 89%. As to `COc1cc(Cl)c(NS(=O)(=O)c2cc3[nH]c(=O)c(=O)[nH]c3cc2C)c(OC)c1`, the survival is inactive: 120%. Turning to `CCOC(=O)N1CCN(C(=S)Nc2ccc3nsnc3c2)CC1`, the survival is inactive: 97%.

Regarding `COc1ccc(Br)cc1CNCc1c(C(=O)O)c(C)n(Cc2ccccc2C)c1C`, the survival is inactive: 65%. For the compound `Cc1nc2cccnc2n1-c1cccc(C(=O)NCc2cccc(Cl)c2)c1`, the survival was inactive: 85%.

Regarding `CCC(=O)N1CCc2cc(Br)cc(S(=O)(=O)NCCc3ccc(C)cc3)c21`, the survival was inactive: 85%. With `CCCN(C(=O)c1cc2c(s1)-c1ccccc1OC2)c1ccc(C(C)C)cc1`, the survival was active: -3%.

On to `Cc1cccc(OC(=O)c2snnc2C)c1C`, for which the survival is inactive: 82%. Turning to `CCc1ccc(Nc2nc(-c3cc4cccc(OC)c4oc3=O)c(CC)s2)cc1`, the survival was inactive: 113%. On to `CCOC(=O)c1ccc(NC(=O)Nc2cc3c(cc2N2CCCCC2)n(CC)c(=O)n3CC)cc1`, for which the survival is active: 57%. As to `c1cc2c(cc1CNc1ccc(N3CCOCC3)cc1)OCO2`, the survival is inactive: 68%. Consider `CCOC(=O)Cc1ccc(NC(=O)Nc2nnc(N3CCCCC3C)s2)cc1` (stereo not drawn), for which the survival was inactive: 76%. `CN=C1SC(CC(=O)NC(N)=O)C(=O)N1C` (stereo not drawn): the survival is inactive: 90%. For the compound `O=C(Nc1ccc2c(c1)CCCN2C(=O)c1cccs1)c1ccccc1C(F)(F)F`, the survival is inactive: 89%.

For `COC(=O)c1ccc(NC(=O)c2c(-c3ccccc3)c(-c3ccccc3)nn(C)c2=O)cc1`, the survival was inactive: 58%.

In the case of `O=S(=O)(Nc1ccc(OC(F)(F)F)cc1)c1ccc(N2CCCCS2(=O)=O)cc1`, the survival was inactive: 78%. As to `CCc1cccc(C)c1Nc1c(-c2cccs2)nc2ncccn12`, the survival is inactive: 73%. Take `OCCN(CCO)CC(O)Cn1c2ccc(Br)cc2c2cc(Br)ccc21` (stereo not drawn): the survival is active: 2%. To `O=C(Cn1c(=O)c2ccccc2n(CC(=O)Nc2ccccc2F)c1=O)NCCc1ccccc1` belongs inactive: 80%. As for `Cc1cc(C)c(NC(=O)CCN2CCCCC2)c(C)c1`, the survival was inactive: 86%. On to `CC(C)c1ccc(S(=O)(=O)NCc2nc3cccnc3n2Cc2ccc(F)cc2)cc1`, for which the survival was inactive: 88%. On to `Cn1cnnc1SCCOc1ccc(Cl)cc1`, for which the survival was inactive: 103%. Turning to `COc1ccc(N2CCN(C(=O)CSc3nnc4c(C)cc5cc6c(cc5n34)OCCO6)CC2)cc1`, the survival was inactive: 86%. For `CC1=C(C(=O)Nc2cc(C)cc(C)c2)C2(CCCCC2)OC1=O`, the survival is inactive: 90%. As to `O=C(Nc1ccc(F)c(F)c1)c1ccc(=O)n(Cc2ccc(F)cc2)c1`, the survival was inactive: 112%.

For `COc1ccc(NC(=O)COCc2cc(-c3ccco3)on2)cc1Cl`, the survival is inactive: 112%. Regarding `COc1ccc(-c2nnn(CC(=O)N(CC(=O)NC3CCCC3)c3ccccc3)n2)cc1OC`, the survival is inactive: 93%.

Consider `Cc1ccc(NC(=O)C2CCC(CNS(=O)(=O)c3cccs3)CC2)cc1C` (stereo not drawn), for which the survival was inactive: 94%. As to `CCOC(=O)C1CCN(C(=O)c2ccc(C)c(NC(=O)c3nsc4ccccc34)c2)CC1`, the survival is inactive: 88%. Take `CCC(=O)N1c2ccc(S(=O)(=O)CCC(=O)NCc3ccc(OC)cc3)cc2CC1C` (stereo not drawn): the survival is inactive: 117%. `CCN1CCN(C(C)C(=O)Nc2ncc(C)s2)CC1` (stereo not drawn): the survival is inactive: 72%.

In the case of `CCc1ccc2c(c1)c(=O)c(S(=O)(=O)c1ccc(F)cc1)cn2CC(=O)Nc1ccccc1OC`, the survival was inactive: 84%. In the case of `O=C1C2C3C=CC(C3)C2C(=O)N1CCCCN1C(=O)C2C3C=CC(C3)C2C1=O` (stereo not drawn), the survival is inactive: 93%.

Regarding `CC1(C)CC2=NNC(c3ccccc3)C2CO1` (stereo not drawn), the survival was inactive: 77%. Consider `Cc1ccc(NC(=O)c2oc3ccccc3c2NC(=O)C2CCCCC2)cc1`, for which the survival is active: 2%. In the case of `CCc1ccc(-n2c(=O)c3sc4ccccc4c3n(CC(=O)NC3CCCC3)c2=O)cc1`, the survival was inactive: 77%.

On to `COc1cc(OC)c(NC(=O)CCc2nc(C3=CCN(Cc4cccc(Cl)c4)CC3)no2)cc1Cl`, for which the survival is inactive: 75%. In the case of `COc1ccc(CCNC(=O)CCc2c(C)c3ccc(O)c(C)c3oc2=O)cc1` it was inactive: 107%. In the case of `Cc1nc2nc(CNC(=O)OC(C)(C)C)nn2c(C)c1CCC(=O)NCc1ccccc1Cl` it was inactive: 80%.

Turning to `Nc1nc(N)c(S(=O)(=O)c2ccccc2)c(Nc2ccccc2)n1`, the survival is inactive: 69%. Take `COc1cccc(C2C(=O)N(C3CCCCC3)CC(=O)N2CCc2ccc(OC)c(OC)c2)c1` (stereo not drawn): the survival is inactive: 91%. For `CCOC(=O)c1[nH]c2ccccc2c1N=CN(C)C`, the survival is inactive: 97%. To `CCCC12CN3CC(CCC)(CN(C1)C3c1c[nH]c3ccc(OC)cc13)C2=O` (stereo not drawn) belongs inactive: 88%. `O=C(CN1C(=O)CCSc2ccc(S(=O)(=O)N3CCCC3)cc21)Nc1ccccc1Cl`: the survival is inactive: 96%. As for `CCN(C(=O)CSc1nc2ccccc2nc1Cc1ccccc1OC)c1ccccc1`, the survival was inactive: 81%.

As to `CCCOc1ccc(CC2C(=O)Nc3ccc(Br)cc32)cc1` (stereo not drawn), the survival is active: 0%. As to `O=C(O)/C=C/C(=O)Nc1ccc(-c2nc3ccccc3o2)cc1`, the survival is inactive: 74%. With `CCSC1=NC2(CCN(C(=O)NC3CCCCC3)CC2)N=C1c1ccc(OC)cc1`, the survival is inactive: 107%. Turning to `Cc1nc(CC(=O)Nc2ccc(C(N)=O)cc2)cs1`, the survival is inactive: 49%. As for `CC(C(=O)NCc1ccccc1)n1ccc2cc(S(=O)(=O)N3CCCC3)ccc21` (stereo not drawn), the survival was active: 20%. As for `CCOc1ccccc1CNC(=O)CCc1cn(C)c2ccccc12`, the survival was inactive: 99%. `COc1ccc(NC(=O)Cn2c(=O)n(Cc3ccco3)c(=O)c3sc4ccccc4c32)cc1Cl`: the survival is inactive: 80%. Take `Cc1ccc(N2CCn3c2nc2c3c(=O)n(Cc3cccc(Cl)c3)c(=O)n2C)cc1C`: the survival was inactive: 87%. As to `CC(C)c1ccc(NC(=O)CN2C(=O)C3(SCC(=O)N3c3ccc(F)cc3)c3ccccc32)cc1` (stereo not drawn), the survival is inactive: 85%.

For the origin of these results see PubChem BioAssay AID463173 (ICCB-Longwood Screening Facility, Harvard Medical School, 2010).
